{"source": "paper PMC4336329", "about": "(PLoS ONE, 2015)", "note": "Among all 310,000 compounds or so, about 2,200 (0.71%) showed an effect of 50% or more. Effects have a minus sign here. This is one part of the list."}
{"target": "human ether-à-go-go-related gene (hERG) potassium channel (human, UniProt Q12809)", "sequence (Q12809 whole entry, looked up)": "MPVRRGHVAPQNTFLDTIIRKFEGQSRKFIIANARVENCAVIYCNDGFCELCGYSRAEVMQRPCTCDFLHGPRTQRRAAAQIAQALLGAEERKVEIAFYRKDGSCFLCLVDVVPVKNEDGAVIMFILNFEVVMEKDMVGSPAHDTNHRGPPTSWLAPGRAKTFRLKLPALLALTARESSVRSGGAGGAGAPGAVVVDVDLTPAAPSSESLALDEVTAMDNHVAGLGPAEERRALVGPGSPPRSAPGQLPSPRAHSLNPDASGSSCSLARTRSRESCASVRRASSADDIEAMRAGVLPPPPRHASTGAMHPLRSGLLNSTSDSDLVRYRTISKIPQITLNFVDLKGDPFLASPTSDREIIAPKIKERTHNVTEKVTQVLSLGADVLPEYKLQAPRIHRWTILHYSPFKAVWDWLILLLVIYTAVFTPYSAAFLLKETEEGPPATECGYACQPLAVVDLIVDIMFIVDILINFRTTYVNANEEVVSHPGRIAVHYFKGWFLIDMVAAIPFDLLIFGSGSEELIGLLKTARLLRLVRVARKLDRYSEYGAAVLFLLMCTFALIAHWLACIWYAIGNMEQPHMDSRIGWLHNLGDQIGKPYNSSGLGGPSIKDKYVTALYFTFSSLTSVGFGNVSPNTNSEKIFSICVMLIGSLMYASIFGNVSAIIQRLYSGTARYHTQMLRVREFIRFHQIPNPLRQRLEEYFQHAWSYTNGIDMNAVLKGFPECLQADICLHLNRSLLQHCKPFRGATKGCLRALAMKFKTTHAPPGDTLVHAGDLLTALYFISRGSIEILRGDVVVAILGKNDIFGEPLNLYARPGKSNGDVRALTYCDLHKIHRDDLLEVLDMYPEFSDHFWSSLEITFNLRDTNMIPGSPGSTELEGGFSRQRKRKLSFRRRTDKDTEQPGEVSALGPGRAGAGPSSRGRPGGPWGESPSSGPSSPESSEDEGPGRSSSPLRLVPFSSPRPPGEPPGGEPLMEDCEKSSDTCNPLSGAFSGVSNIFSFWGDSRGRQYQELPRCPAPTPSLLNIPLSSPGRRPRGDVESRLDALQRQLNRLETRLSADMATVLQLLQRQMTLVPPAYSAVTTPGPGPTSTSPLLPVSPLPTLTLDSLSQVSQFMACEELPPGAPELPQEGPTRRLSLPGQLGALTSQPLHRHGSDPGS", "experiment": "primary screen, population patch clamp on CHO cells stably expressing hERG", "units": {"hERG current change (%, negative = inhibition) at 1uM": "%"}}
{"compound": "COc1cccc(N=C2SC(CC(=O)Nc3ccccc3)C(=O)N2Cc2ccccn2)c1", "note": "(stereo not shown)", "hERG current change (%, negative = inhibition) at 1uM": 1.07}
{"compound": "O=C(CCC1CCCCC1)NC1=NCCS1", "hERG current change (%, negative = inhibition) at 1uM": 12.1}
{"compound": "Cc1ccc(CNC(=O)c2cc3c(=O)n4ccccc4nc3n(CC3CCCO3)c2=N)cc1", "note": "(stereo not shown)", "hERG current change (%, negative = inhibition) at 1uM": -85.7}
{"compound": "Fc1ccccc1-c1nc(NC2CCCC2)c2ccccc2n1", "hERG current change (%, negative = inhibition) at 1uM": 13.5}
{"compound": "Cc1ccc(Sc2nnc(Cc3ccccc3)c3ccccc23)cc1", "hERG current change (%, negative = inhibition) at 1uM": 13.4}
{"compound": "Cc1nn(-c2ccccc2)c2c1C(c1cccc([N+](=O)[O-])c1)N(c1ccccc1)C(=O)N2", "note": "(stereo not shown)", "hERG current change (%, negative = inhibition) at 1uM": 13.8}
{"compound": "O=C(O)C1CCCN1S(=O)(=O)c1ccc2c(c1)CCC2", "note": "(stereo not shown)", "hERG current change (%, negative = inhibition) at 1uM": -6.93}
{"compound": "CCCN1CCN(C(=O)Cn2cccc2C(=O)c2ccccc2)CC1", "hERG current change (%, negative = inhibition) at 1uM": 4.98}
{"compound": "COc1ccc(-c2noc(CSc3nc4sc(C)c(C)c4c(=O)n3-c3ccccc3)n2)cc1OC", "hERG current change (%, negative = inhibition) at 1uM": -0.518}
{"compound": "CC(=O)c1cccc(NC(=O)c2cc(=O)[nH]c3ccccc23)c1", "hERG current change (%, negative = inhibition) at 1uM": 7.94}
{"compound": "COC(=O)c1nc2n(n1)C(c1cccc(Cl)c1)C1=C(CC(C)(C)CC1=O)N2", "note": "(stereo not shown)", "hERG current change (%, negative = inhibition) at 1uM": 9.5}
{"compound": "O=C(Cc1ccccc1)Nc1ccc2oc(=O)ccc2c1", "hERG current change (%, negative = inhibition) at 1uM": 8.05}
{"compound": "CC(C)(C)NC(=O)C(OC(=O)c1cccs1)c1ccccc1", "note": "(stereo not shown)", "hERG current change (%, negative = inhibition) at 1uM": 37.1}
{"compound": "O=C(CCS(=O)(=O)c1ccccc1)NC1CCCC1", "hERG current change (%, negative = inhibition) at 1uM": -8.27}
{"compound": "COc1ccccc1CC(=O)N1CCN(c2cccc(Cl)c2)CC1", "hERG current change (%, negative = inhibition) at 1uM": 1.37}
{"compound": "Cc1sc(NC(=O)Cc2ccc3c(c2)OCO3)nc1-c1ccc2c(c1)CCN2C(=O)c1ccccc1F", "hERG current change (%, negative = inhibition) at 1uM": 10.6}
{"compound": "COc1ccc(Nc2nc(C)nc3c2nnn3Cc2ccccc2Cl)c(OC)c1", "hERG current change (%, negative = inhibition) at 1uM": 13.7}
{"compound": "COc1ccccc1-c1cc(C(=O)NCc2ccc(F)cc2)no1", "hERG current change (%, negative = inhibition) at 1uM": 3.2}
{"compound": "Cc1ccc(N(CC(O)CON=C2c3ccccc3-c3ccccc32)S(C)(=O)=O)cc1", "note": "(stereo not shown)", "hERG current change (%, negative = inhibition) at 1uM": 15.4}
{"compound": "Cc1c(NC(=O)CCSCCc2ccccn2)cccc1[N+](=O)[O-]", "hERG current change (%, negative = inhibition) at 1uM": 7.15}
{"compound": "COc1ccc(-c2noc(CN(C(=O)C(C)(C)C)C(C)C)n2)cc1", "hERG current change (%, negative = inhibition) at 1uM": 4.73}
{"compound": "COc1ccc(/C=N/n2cnnc2)cc1Br", "hERG current change (%, negative = inhibition) at 1uM": 8.82}
{"compound": "CC(C)(C)NC(=O)COC(=O)c1c2c(nc3ccccc13)CCC2", "hERG current change (%, negative = inhibition) at 1uM": 16.7}
{"compound": "CCCN(CC(=O)Nc1ccccc1OC)C(=O)c1ccc2[nH]c3c(c2c1)CC(C)CC3", "note": "(stereo not shown)", "hERG current change (%, negative = inhibition) at 1uM": 0.531}
{"compound": "CCNC(=S)N/N=C/c1cn(Cc2ccccc2F)c2ccccc12", "hERG current change (%, negative = inhibition) at 1uM": 7.96}
{"compound": "Cc1cc(C(=O)Nc2c[nH]c(=O)[nH]c2=O)ccc1[N+](=O)[O-]", "hERG current change (%, negative = inhibition) at 1uM": 16.6}
{"compound": "O=C(N/N=C/c1cccc(O)c1)c1ccc(NC(=O)c2cccc([N+](=O)[O-])c2)cc1", "hERG current change (%, negative = inhibition) at 1uM": 12.6}
{"compound": "Cn1cc(/C=C(\\NC(=O)c2ccccc2Cl)C(=O)NCCCn2ccnc2)c2ccccc21", "hERG current change (%, negative = inhibition) at 1uM": 13.8}
{"compound": "COc1n[nH]c2nncnc12", "hERG current change (%, negative = inhibition) at 1uM": -5.34}
{"compound": "CC(NC(=O)C1CCC(C(C)(C)C)CC1)C(c1ccccc1)N1CCOCC1", "note": "(stereo not shown)", "hERG current change (%, negative = inhibition) at 1uM": 11.3}
{"compound": "CN(C)/C=C/C(=O)c1nnn(C2CCCCC2)c1NC1CCCCC1", "hERG current change (%, negative = inhibition) at 1uM": 5.58}
{"compound": "O=C(O)c1cc(Cl)c(Cl)cc1C(=O)Nc1cccc2cccnc12", "hERG current change (%, negative = inhibition) at 1uM": 12.7}
{"compound": "CSc1n[nH]c2nc3c(c(=O)n12)C1(CCCCC1)Cc1ccccc1-3", "hERG current change (%, negative = inhibition) at 1uM": 8.2}
{"compound": "C#CCNC(=O)C1=C[C@H](c2ccc(C(F)(F)F)cc2)[C@@H](CCCO)[C@H](OCC)O1", "hERG current change (%, negative = inhibition) at 1uM": 1.91}
{"compound": "CCCCS(=O)(=O)N1CCN(S(=O)(=O)c2cccs2)CC1", "hERG current change (%, negative = inhibition) at 1uM": 16.3}
{"compound": "CCc1ccc(N2C(=O)CC(N3CCN(Cc4ccc5c(c4)OCO5)CC3)C2=O)cc1", "note": "(stereo not shown)", "hERG current change (%, negative = inhibition) at 1uM": -1.13}
{"compound": "C=C1CCN(c2ccc(C(=O)NCCC)cc2[N+](=O)[O-])CC1", "hERG current change (%, negative = inhibition) at 1uM": -8.06}
{"compound": "COc1ccccc1NC(=O)c1ccc2c(c1)N(CC#N)C(=O)C(C)(C)O2", "hERG current change (%, negative = inhibition) at 1uM": 3.41}
{"compound": "CCCc1cc(C(=O)N2CCCC(Cc3cccc(Cl)c3)(C(=O)OCC)C2)n(C)n1", "note": "(stereo not shown)", "hERG current change (%, negative = inhibition) at 1uM": 10.4}
{"compound": "CCC1Sc2ccccc2N(CC(=O)NCCC2=CCCCC2)C1=O", "note": "(stereo not shown)", "hERG current change (%, negative = inhibition) at 1uM": 13.6}
{"compound": "COc1ccc(NC(=O)C(=O)N/N=C\\c2ccc(CNC(=O)C(=O)Nc3ccc(C)c(C)c3)o2)c(OC)c1", "hERG current change (%, negative = inhibition) at 1uM": 10.4}
{"compound": "c1ccc2oc(-c3[nH]ncc3CN(Cc3ccncc3)CC3CCCO3)cc2c1", "note": "(stereo not shown)", "hERG current change (%, negative = inhibition) at 1uM": 10.4}
{"compound": "CC(C)n1cc(CN2CCCC(CNS(=O)(=O)c3cccc4cccnc34)C2)cn1", "note": "(stereo not shown)", "hERG current change (%, negative = inhibition) at 1uM": 5.26}
{"compound": "CN(C)c1ccc2c3c(ccc(N(C)C)c13)C(=O)OC2", "hERG current change (%, negative = inhibition) at 1uM": -27.8}
{"compound": "COc1ccc(OC)c(NC(=O)CNC(=O)Cn2cnc3ccccc3c2=O)c1", "hERG current change (%, negative = inhibition) at 1uM": 7.41}
{"compound": "Cc1ccc(C2=NS(=O)(=O)N(C)C(C(=O)NCc3ccccn3)=C2)cc1", "hERG current change (%, negative = inhibition) at 1uM": -1.95}
{"compound": "Cn1c(SCc2ccc(Cl)cc2Cl)nc(C(F)(F)F)cc1=O", "hERG current change (%, negative = inhibition) at 1uM": 4.82}
{"compound": "CC(=O)OC(C(=O)NC1CCCCC1)c1cccc(C)c1", "note": "(stereo not shown)", "hERG current change (%, negative = inhibition) at 1uM": 9.43}
{"compound": "CCCCN1C[C@H](Cc2ccccc2)[C@@H](CC(=O)NCc2ccc(OC)cc2)C1=O", "hERG current change (%, negative = inhibition) at 1uM": -8.73}
{"compound": "COc1cc(/C=N/N(C)C)ccc1OC(=O)c1ccco1", "hERG current change (%, negative = inhibition) at 1uM": 19.7}
{"compound": "CNC(C)CCC=C(C)C.O=C(O)C(O)C(O)C(O)C(O)C(=O)O", "note": "(stereo not shown)", "hERG current change (%, negative = inhibition) at 1uM": 13.4}
{"compound": "COCCNC(=O)Cn1c(=O)n(CCCCCC(=O)Nc2ccccc2)c(=O)c2sccc21", "hERG current change (%, negative = inhibition) at 1uM": 1.5}
{"compound": "O=C(NCCCN1CCOCC1)c1ccc(N2CCCC2)c([N+](=O)[O-])c1", "hERG current change (%, negative = inhibition) at 1uM": 4.41}
{"compound": "CC(C(=O)NC(C)(C)C)N(C(=O)CS(=O)CC(=O)Nc1ccc(F)cc1)c1ccccc1F", "note": "(stereo not shown)", "hERG current change (%, negative = inhibition) at 1uM": 12.3}
{"compound": "c1ccc(CSc2nnc(-c3ccco3)o2)cc1", "hERG current change (%, negative = inhibition) at 1uM": 8.9}
